Some of the results follow.

The record followed here is the antibiotic and cytotoxicity screens of Wong et al. (2023).

The test system of this assay is S. aureus RN4220. Kind of assay: growth inhibition call (relative growth <= 0.2). The conditions noted are these: 50 µM.
With `CO[C@H]1CN(C)C(=O)c2cc(NC(=O)Nc3ccccc3F)ccc2OC[C@@H](C)N(Cc2ccccc2C(=O)O)C[C@H]1C`, the growth inhibition call is “inactive”. Consider `NNC(=O)c1ccncc1.Nc1ccc(C(=O)O)c(O)c1`, for which the growth inhibition call is “inactive”.

For the molecule `C[C@@H]1CCCCO[C@H](CN(C)C(=O)C2CCCCC2)[C@H](C)CN([C@@H](C)CO)C(=O)c2cc(NC(=O)c3ccncc3)ccc2O1`, the growth inhibition call is “inactive”. Under `C[C@@H]1CN([C@@H](C)CO)C(=O)c2cc(NC(=O)Cc3ccccc3)ccc2O[C@@H](C)CCCCO[C@@H]1CN(C)S(=O)(=O)c1ccc(Cl)cc1` stands “inactive”. Under `C[C@H]1CN([C@@H](C)CO)C(=O)Cc2cc(NC(=O)Nc3cccc4ccccc34)ccc2O[C@@H]1CN(C)CC1CCCCC1` stands “inactive”.

Regarding `C[C@H]1CN([C@@H](C)CO)C(=O)c2cc(NS(C)(=O)=O)ccc2O[C@@H]1CN(C)Cc1ccc(C(=O)Nc2ccccc2N)cc1`, the growth inhibition call is “inactive”. The entry for `O=C(CCCCCNC(=O)OCCCCO[C@@H]1C[C@H](c2ccc(Br)cc2)C=C(C(=O)N2CCN(Cc3ccccc3)CC2)O1)NO` is “inactive”. Under `C[C@@H]1CN([C@@H](C)CO)C(=O)c2cc(NC(=O)Nc3ccc(C(F)(F)F)cc3)ccc2O[C@@H](C)CCCCO[C@H]1CN(C)S(=O)(=O)c1ccccc1` stands “inactive”.

On to `O=Cc1ccc(CO)o1`, for which the growth inhibition call is “inactive”.

For `Cc1ccc(S(=O)(=O)N(C)C[C@@H]2Oc3ccc(NC(=O)Nc4ccc(C(F)(F)F)cc4)cc3CC(=O)N([C@@H](C)CO)C[C@H]2C)cc1`, the growth inhibition call is “inactive”. The entry for `C[C@@H]1CN([C@@H](C)CO)C(=O)c2cc(NC(=O)NC3CCCCC3)ccc2O[C@@H](C)CCCCO[C@H]1CN(C)Cc1ccc(Cl)c(Cl)c1` is “inactive”; for `C[C@@H]1CN([C@H](C)CO)C(=O)c2cc(NC(=O)Nc3ccc4c(c3)OCO4)ccc2O[C@@H](C)CCCCO[C@H]1CN(C)S(=O)(=O)c1cccs1` it is “inactive”; for `C[C@H](CO)N1C[C@H](C)[C@H](CN(C)S(=O)(=O)c2ccccc2)Oc2c(NC(=O)C3CC3)cccc2C1=O` it is “inactive”. Under `O=C(CCCCCC(=O)N/N=C/[C@H](O)[C@@H](O)[C@H](O)[C@H](O)CO)NO` stands “inactive”; under `COc1cc2c(cc1OC)CN(C(=O)[C@H]1[C@@H]3C(=O)O[C@@H](c4ccccc4)[C@@H](c4ccccc4)N3[C@@H](c3ccc(OCCO)cc3)[C@]13C(=O)Nc1ccc(C#CC4(O)CCCCCC4)cc13)CC2`, “inactive”.

Turning to `COc1ccc2c3c([nH]c2c1)[C@@H](CO)N(C[C@]13CCN(CC1)CC1CCCC1)C(=O)CN1CCOCC1`, the growth inhibition call is “inactive”. Under `CCCCCCCCCC(=O)N[C@H]1[C@H](Oc2c3cc4cc2Oc2ccc(cc2Cl)[C@@H](O[C@@H]2O[C@H](CO)[C@@H](O)[C@H](O)[C@H]2NC(C)=O)[C@@H]2NC(=O)[C@H](NC(=O)[C@@H]4NC(=O)[C@H]4NC(=O)[C@@H](Cc5ccc(c(Cl)c5)O3)NC(=O)[C@@H](N)c3ccc(O)c(c3)Oc3cc(O)cc4c3)c3ccc(O)c(c3)-c3c(O[C@H]4O[C@H](CO)[C@@H](O)[C@H](O)[C@@H]4O)cc(O)cc3[C@H](C(=O)O)NC2=O)O[C@H](CO)[C@@H](O)[C@@H]1O` stands “active”; under `C[C@@H]1CN([C@@H](C)CO)C(=O)c2cccc(NC(=O)CCCCCC(=O)Nc3ccccc3N)c2O[C@H]1CN(C)C(=O)Nc1ccc(F)cc1`, “inactive”. For `C[C@H]1CCCCO[C@@H](CN(C)C(=O)NC2CCCCC2)[C@@H](C)CN([C@@H](C)CO)C(=O)c2cc(NS(=O)(=O)c3cccs3)ccc2O1`, the growth inhibition call is “inactive”. The entry for `COc1ccc(NC(=O)Nc2ccc3c(c2)C(=O)N([C@@H](C)CO)C[C@@H](C)[C@@H](CN(C)C(=O)C2CCCCC2)OCCCC[C@@H](C)O3)cc1` is “inactive”. Regarding `CS(=O)(=O)Nc1cccc(C2=NN(c3nc(-c4ccccc4)c4cc(Cl)ccc4n3)[C@H](c3ccco3)C2)c1`, the growth inhibition call is “inactive”.

`Cc1ccc(S(=O)(=O)Nc2cccc3c2O[C@H](CN(C)C(=O)Nc2cccc4ccccc24)[C@@H](C)CN([C@H](C)CO)C3=O)cc1`: the growth inhibition call is “inactive”. As to `C[C@@H]1CCCCO[C@@H](CN(C)S(=O)(=O)c2ccccc2)[C@@H](C)CN([C@H](C)CO)C(=O)c2cc(NC(=O)Nc3cccc4ccccc34)ccc2O1`, the growth inhibition call was “inactive”. The entry for `COc1ccc(NC(=O)Nc2ccc3c(c2)CC(=O)N([C@H](C)CO)C[C@H](C)[C@@H](CN(C)S(=O)(=O)c2c(C)noc2C)O3)cc1` is “inactive”.
